Experimental data published in the supplement of paper PMC4604168 (melanoma cell lines).
This is one part of the list. Single values are uncertain, as repeats are few or missing.

Each compound was assayed on MZ2-MEL (assay: cell count relative to DMSO control; melanoma cells; higher = more viable cells). Details: library dose: low library concentration; 72 h.
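Further: cell number obtained by counting DAPI-stained nuclei in high-throughput microscope images with image analysis software, screen run in 1,536-well plates.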

Row | SMILES | cell count [%]
1 | Cc1cc(Nc2cc(N3CCN(C)CC3)nc(/C=C/c3ccccc3)n2)n[nH]1 + OCCn1cc(-c2cnc3nnn(Cc4ccc5ncccc5c4)c3n2)cn1 [PF04217903] (first compound 0.04 µM, partner dose 1 µM) | 102
2 | CC(C)C[C@H](NC(=O)[C@H](Cc1ccccc1)NC(=O)c1cnccn1)B(O)O [Bortezomib] + NCC(=O)Nc1ccc(-n2nc(C(F)(F)F)cc2-c2ccc3c(ccc4ccccc43)c2)cc1 [OSU03012] (first compound 0.001 µM, partner dose 1 µM) | 89
3 | Cn1c(=O)n(-c2ccc(C(C)(C)C#N)cc2)c2c3cc(-c4cnc5ccccc5c4)ccc3ncc21 + COc1cc(Nc2ncc(F)c(Nc3ccc4c(n3)NC(=O)C(C)(C)O4)n2)cc(OC)c1OC [Tamatinib] (first compound 0.004 µM, partner dose 0.4 µM) | 95.4
4 | COc1ccc(C2=N[C@@H](c3ccc(Cl)cc3)[C@@H](c3ccc(Cl)cc3)N2C(=O)N2CCNC(=O)C2)c(OC(C)C)c1 [Nutlin-3] + CCN(CC)CCCCNc1ncc2cc(-c3cc(OC)cc(OC)c3)c(NC(=O)NC(C)(C)C)nc2n1 [PD173074] (first compound 0.1 µM, partner dose 0.1 µM) | 101
5 | CC(C)C[C@H](NC(=O)[C@H](Cc1ccccc1)NC(=O)c1cnccn1)B(O)O [Bortezomib] + CN(C)S(=O)(=O)c1ccc2c(c1)/C(=C/c1cc3c([nH]1)CCCC3)C(=O)N2 [SU6656] (first compound 0.001 µM, partner dose 0.4 µM) | 88.4
6 | Cc1cn(-c2cc(NC(=O)c3ccc(C)c(Nc4nccc(-c5cccnc5)n4)c3)cc(C(F)(F)F)c2)cn1 [nilotinib] + COc1ccc(COc2ccc(Cc3cnc(N)nc3N)cc2OC)cc1 [GW2580] (first compound 0.2 µM, partner dose 1 µM) | 92.1
7 | CC(C)C[C@H](NC(=O)[C@H](Cc1ccccc1)NC(=O)c1cnccn1)B(O)O [Bortezomib] + Oc1cc(-c2nc(-c3ccccc3)[nH]c2-c2ccncc2)ccc1Cl [L779450] (first compound 0.001 µM, partner dose 0.2 µM) | 77.2
8 | CC(C)C[C@H](NC(=O)[C@H](Cc1ccccc1)NC(=O)c1cnccn1)B(O)O [Bortezomib] + Cc1cc(N2CCOCC2)cc2[nH]c(-c3c(NC[C@@H](O)c4cccc(Cl)c4)cc[nH]c3=O)nc12 [BMS536924] (first compound 0.001 µM, partner dose 0.2 µM) | 70.6
9 | Cn1c(=O)n(-c2ccc(C(C)(C)C#N)cc2)c2c3cc(-c4cnc5ccccc5c4)ccc3ncc21 + COc1cc2c(Oc3ccc4[nH]c(C)cc4c3F)ncnc2cc1OCCCN1CCCC1 [cediranib] (first compound 0.004 µM, partner dose 0.4 µM) | 97
10 | Cc1cn(-c2cc(NC(=O)c3ccc(C)c(Nc4nccc(-c5cccnc5)n4)c3)cc(C(F)(F)F)c2)cn1 [nilotinib] + O=C1NC(=O)/C(=C/c2ccc(-c3ccc(F)cc3O)o2)S1 [AS252424] (first compound 0.2 µM, partner dose 1 µM) | 97.7
11 | CC(C)C[C@H](NC(=O)[C@H](Cc1ccccc1)NC(=O)c1cnccn1)B(O)O [Bortezomib] + Cn1cc(/C=C2\C(=O)Nc3cccnc32)c2ccccc21 [GW441756] (first compound 0.001 µM, partner dose 0.4 µM) | 47.2
12 | Cc1cc(Nc2cc(N3CCN(C)CC3)nc(/C=C/c3ccccc3)n2)n[nH]1 + COc1ccc(COc2ccc(Cc3cnc(N)nc3N)cc2OC)cc1 [GW2580] (first compound 0.04 µM, partner dose 1 µM) | 103
13 | Cc1cn(-c2cc(NC(=O)c3ccc(C)c(Nc4nccc(-c5cccnc5)n4)c3)cc(C(F)(F)F)c2)cn1 [nilotinib] + COc1cc(N2CCC(N3CCN(C)CC3)CC2)ccc1Nc1ncc(Cl)c(Nc2ccccc2S(=O)(=O)C(C)C)n1 [NVP-TAE684] (first compound 0.2 µM, partner dose 0.08 µM) | 92.6
14 | CC(C)C[C@H](NC(=O)[C@H](Cc1ccccc1)NC(=O)c1cnccn1)B(O)O [Bortezomib] + O=C1NC(=O)/C(=C/c2ccc(-c3ccc(F)cc3O)o2)S1 [AS252424] (first compound 0.001 µM, partner dose 1 µM) | 67.5
15 | Cc1cc(Nc2cc(N3CCN(C)CC3)nc(/C=C/c3ccccc3)n2)n[nH]1 + CCCCCCCCCCCC1=C(O)C(=O)C=C(O)C1=O [Embelin] (first compound 0.04 µM, partner dose 1.2 µM) | 103
16 | Cn1c(=O)n(-c2ccc(C(C)(C)C#N)cc2)c2c3cc(-c4cnc5ccccc5c4)ccc3ncc21 + Cc1cc(N2CCOCC2)cc2[nH]c(-c3c(NC[C@@H](O)c4cccc(Cl)c4)cc[nH]c3=O)nc12 [BMS536924] (first compound 0.004 µM, partner dose 0.2 µM) | 93.9
17 | Cc1cc(Nc2cc(N3CCN(C)CC3)nc(/C=C/c3ccccc3)n2)n[nH]1 + C=CCn1c(=O)c2cnc(Nc3ccc(N4CCN(C)CC4)cc3)nc2n1-c1cccc(C(C)(C)O)n1 [MK1775] (first compound 0.04 µM, partner dose 0.02 µM) | 102
18 | CC(C)C[C@H](NC(=O)[C@H](Cc1ccccc1)NC(=O)c1cnccn1)B(O)O [Bortezomib] + COC(=O)c1sccc1S(=O)(=O)Nc1ccc(Nc2ccccc2)cc1OC [GSK0660] (first compound 0.001 µM, partner dose 1 µM) | 78.4
19 | Cc1cn(-c2cc(NC(=O)c3ccc(C)c(Nc4nccc(-c5cccnc5)n4)c3)cc(C(F)(F)F)c2)cn1 [nilotinib] + O=C(Nc1ccccc1)c1cc([N+](=O)[O-])ccc1Cl [GW9662] (first compound 0.2 µM, partner dose 2 µM) | 93.4
20 | CC(C)C[C@H](NC(=O)[C@H](Cc1ccccc1)NC(=O)c1cnccn1)B(O)O [Bortezomib] + C=CCn1c(=O)c2cnc(Nc3ccc(N4CCN(C)CC4)cc3)nc2n1-c1cccc(C(C)(C)O)n1 [MK1775] (first compound 0.001 µM, partner dose 0.02 µM) | 96.3
21 | Cc1cn(-c2cc(NC(=O)c3ccc(C)c(Nc4nccc(-c5cccnc5)n4)c3)cc(C(F)(F)F)c2)cn1 [nilotinib] + CN(C)S(=O)(=O)c1ccc2c(c1)/C(=C/c1cc3c([nH]1)CCCC3)C(=O)N2 [SU6656] (first compound 0.2 µM, partner dose 0.4 µM) | 102
22 | Cc1cc(Nc2cc(N3CCN(C)CC3)nc(/C=C/c3ccccc3)n2)n[nH]1 + CC1(C)NC(=O)N(c2ccc([N+](=O)[O-])c(C(F)(F)F)c2)C1=O [nilutamide] (first compound 0.04 µM, partner dose 1 µM) | 104
23 | Cn1c(=O)n(-c2ccc(C(C)(C)C#N)cc2)c2c3cc(-c4cnc5ccccc5c4)ccc3ncc21 + O=C(O)c1ccc(-c2c[nH]c3ncc(-c4ccccc4)cc23)cc1C1CCCC1 [GSK650394] (first compound 0.004 µM, partner dose 0.16 µM) | 98.4
24 | Cc1cn(-c2cc(NC(=O)c3ccc(C)c(Nc4nccc(-c5cccnc5)n4)c3)cc(C(F)(F)F)c2)cn1 [nilotinib] + Cc1ccc(NC(=O)c2cccc(N(C)C)c2)cc1NC(=O)c1ccc(O)cc1 [ZM336372] (first compound 0.2 µM, partner dose 2 µM) | 79.8
25 | Cc1cc(Nc2cc(N3CCN(C)CC3)nc(/C=C/c3ccccc3)n2)n[nH]1 + O=C(O)C(=O)Nc1sc2c(c1C(=O)O)CCNC2 [TCS401] (first compound 0.04 µM, partner dose 1.66667 µM) | 100
26 | CC(C)C[C@H](NC(=O)[C@H](Cc1ccccc1)NC(=O)c1cnccn1)B(O)O [Bortezomib] + COc1cc(Nc2ncc(F)c(Nc3ccc4c(n3)NC(=O)C(C)(C)O4)n2)cc(OC)c1OC [Tamatinib] (first compound 0.001 µM, partner dose 0.4 µM) | 74.4
27 | Cc1cc(Nc2cc(N3CCN(C)CC3)nc(/C=C/c3ccccc3)n2)n[nH]1 + Cc1cc(N2CCOCC2)cc2[nH]c(-c3c(NC[C@@H](O)c4cccc(Cl)c4)cc[nH]c3=O)nc12 [BMS536924] (first compound 0.04 µM, partner dose 0.2 µM) | 99.9
28 | Cc1cn(-c2cc(NC(=O)c3ccc(C)c(Nc4nccc(-c5cccnc5)n4)c3)cc(C(F)(F)F)c2)cn1 [nilotinib] + COc1cc2ncnc(Nc3ccc(Oc4ccccc4)cc3)c2cc1OC [SrcI1] (first compound 0.2 µM, partner dose 2 µM) | 90.9
29 | COc1ccc(C2=N[C@@H](c3ccc(Cl)cc3)[C@@H](c3ccc(Cl)cc3)N2C(=O)N2CCNC(=O)C2)c(OC(C)C)c1 [Nutlin-3] + CN(NC(=O)CC(=O)NN(C)C(=S)c1ccccc1)C(=S)c1ccccc1 [STA4783] (first compound 0.1 µM, partner dose 0.006 µM) | 96.4
30 | Cc1cc(Nc2cc(N3CCN(C)CC3)nc(/C=C/c3ccccc3)n2)n[nH]1 + COc1ccc(-c2ccc3c(N4CCOCC4)nc(N4C[C@@H](C)O[C@@H](C)C4)nc3n2)cc1CO [KU0063794] (first compound 0.04 µM, partner dose 0.02 µM) | 92.3
